{
  "source": "paper PMC10726135",
  "note": "Some of the results follow. At the low end of the ranking, values are background and their order means little. The protein was read in a cell extract, so binding may be indirect.",
  "data": [
    {"target": "T1, HNF4alpha8 (COS-7 nuclear extract) (UniProt P41235-5)", "T1 sequence": "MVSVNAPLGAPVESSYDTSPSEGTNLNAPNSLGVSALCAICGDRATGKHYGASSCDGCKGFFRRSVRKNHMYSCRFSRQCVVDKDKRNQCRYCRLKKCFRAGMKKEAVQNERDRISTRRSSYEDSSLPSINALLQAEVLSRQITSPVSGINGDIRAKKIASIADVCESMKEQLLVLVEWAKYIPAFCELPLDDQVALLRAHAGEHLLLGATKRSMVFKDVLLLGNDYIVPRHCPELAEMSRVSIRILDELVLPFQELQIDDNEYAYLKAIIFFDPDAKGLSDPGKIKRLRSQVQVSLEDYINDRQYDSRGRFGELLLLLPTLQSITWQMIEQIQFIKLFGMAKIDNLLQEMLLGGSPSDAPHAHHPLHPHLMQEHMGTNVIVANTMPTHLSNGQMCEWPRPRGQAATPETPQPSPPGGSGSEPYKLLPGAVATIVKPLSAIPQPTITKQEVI", "assay": "protein-binding microarray", "details": "COS-7 nuclear extract on double-stranded Agilent 4x180k PBM; binding buffer, salt, pH and temperature not given; high values mean tight binding; double strand, one strand shown; sequences stand for … in …GCCTAGGGAGATTAGAGTATCGGTCGA", "values": [
      {"sequence": "TGGGTTGAGGCTAAGAGGTGAACACATTCC", "binding signal (log2 normalized intensity)": -0.969},
      {"sequence": "CTTTTTGGCCTTTGGCTGTTCGATGTATAC", "binding signal (log2 normalized intensity)": 2.53},
      {"sequence": "CCCCACATTCCAACACAGGGTCAATGTCCC", "binding signal (log2 normalized intensity)": 3.76},
      {"sequence": "TTTTTTGCTTAGATGGTTTAAAGAATTCTG", "binding signal (log2 normalized intensity)": 0.568},
      {"sequence": "TTTACTTATCATAAGTCAGCCTGGCTGAAG", "binding signal (log2 normalized intensity)": 1.53},
      {"sequence": "TTGATGTGAGGGTAGGAGCCTAGCTTCCTT", "binding signal (log2 normalized intensity)": -0.444},
      {"sequence": "TTCCTCAACTCTAGGAGCATGTCAAAAGCT", "binding signal (log2 normalized intensity)": -1.27},
      {"sequence": "AGGGCAGCATAATCACATACAGGCCAGCTG", "binding signal (log2 normalized intensity)": -1.54},
      {"sequence": "TGTTCGCAGACCTGCCAAAGTGTACCCTGT", "binding signal (log2 normalized intensity)": 3.49},
      {"sequence": "GGTCCTGCCATTAAACACCTTATTTGGTCA", "binding signal (log2 normalized intensity)": 1.34},
      {"sequence": "TAATCATATCTGCCTCAGTAGTAGTGAAAA", "binding signal (log2 normalized intensity)": 1.63},
      {"sequence": "AGAATGAGCCTCTTCTTTAATAAGAAAAGG", "binding signal (log2 normalized intensity)": -1.33},
      {"sequence": "CCAAAAAGCATAACTGTATAACCTGGAACT", "binding signal (log2 normalized intensity)": -0.938},
      {"sequence": "ACCTACACCTATGTGGTCAAAACTTTGTTT", "binding signal (log2 normalized intensity)": 1.36},
      {"sequence": "TTTATCAGTGATTTCTCTTCCATCTCAGCT", "binding signal (log2 normalized intensity)": -1.37},
      {"sequence": "CAAAGGTCAGATGACAGAATTGGTCCTGGA", "binding signal (log2 normalized intensity)": 2.85},
      {"sequence": "AAAGCTCACAGATGTGGAATGAAACCAGTT", "binding signal (log2 normalized intensity)": 0.297},
      {"sequence": "CGGAGCGCCGAGCAGGCACCCCGGGAGCGC", "binding signal (log2 normalized intensity)": -1.38},
      {"sequence": "TTTTCATCTGATCAGTGCCCATCTGGTGGT", "binding signal (log2 normalized intensity)": 1.18},
      {"sequence": "AGAAAGAAAAAGTACACACCTGCAACCTAT", "binding signal (log2 normalized intensity)": -1.17},
      {"sequence": "CTCCAACTGCTCCTCTTCAACTGATTCTTG", "binding signal (log2 normalized intensity)": -0.845},
      {"sequence": "CCGGGGAGATACTGTAAACCAGCAGTATCT", "binding signal (log2 normalized intensity)": -1.23},
      {"sequence": "AACTGGACTAGACAGGCTTGTCGAGGACAG", "binding signal (log2 normalized intensity)": -1.36},
      {"sequence": "AGCTTCTCTTTCTAGGTCACCACCTTTTTT", "binding signal (log2 normalized intensity)": 1.54},
      {"sequence": "GGAGCAGCATGGCCCTTTGCAGCCCGAGCT", "binding signal (log2 normalized intensity)": -1.22},
      {"sequence": "GTTAAGTGAGTGGACTTTGGTCCTGGTCAG", "binding signal (log2 normalized intensity)": 7.53},
      {"sequence": "AAAAAACCTGTTCAGCCAGATTCTCTCACT", "binding signal (log2 normalized intensity)": -1.33},
      {"sequence": "TCCACAGATAAGGAGGAGACAGACTTATCG", "binding signal (log2 normalized intensity)": -1.32},
      {"sequence": "CTTTGCCCGGATTCCAGCAACTTCCTCTTG", "binding signal (log2 normalized intensity)": -1.38},
      {"sequence": "GCCATGGACTGCTGACCTTTGAACCCTGAG", "binding signal (log2 normalized intensity)": 10.3},
      {"sequence": "CACCACTAGGAAACTGACCTTTGCTCATGA", "binding signal (log2 normalized intensity)": 7.58},
      {"sequence": "GCAAGACTGCATTCCCTAGATGTCGCAGTA", "binding signal (log2 normalized intensity)": -1.3},
      {"sequence": "GGTCAGAGTAAAGCTCCAGTCTCCTCCCTG", "binding signal (log2 normalized intensity)": -1.18},
      {"sequence": "AGGAAATCAAAAACCATTTGACAATTTACA", "binding signal (log2 normalized intensity)": -1.22},
      {"sequence": "GAGACATGTGGCCTTTGGTACAGGGCCCAG", "binding signal (log2 normalized intensity)": 2.06},
      {"sequence": "CACCAGATAGCAAGGAGACATCGCTCCTCC", "binding signal (log2 normalized intensity)": -1.32},
      {"sequence": "AATCATGGGCCCACAGATGATCAAAGGTCA", "binding signal (log2 normalized intensity)": 7.91},
      {"sequence": "CTCCAGGGAGAAACCTGCCAGGTGGACCAA", "binding signal (log2 normalized intensity)": 1.8},
      {"sequence": "AAGATATTATCTCTGTCTGTCAAGGCTTTT", "binding signal (log2 normalized intensity)": 0.523},
      {"sequence": "GAAGATTTGCGGCCATCTAGCTACAGGAGA", "binding signal (log2 normalized intensity)": -1.27},
      {"sequence": "AGGTCGGTGGTATGTGTGTGCTTTAACAAG", "binding signal (log2 normalized intensity)": 2.04},
      {"sequence": "GGCGGGGTTTTCGGTTTTCAAATGAACCCG", "binding signal (log2 normalized intensity)": 3.66},
      {"sequence": "TTCTTGCTCTTTACCCCTGCAAGGATTGAT", "binding signal (log2 normalized intensity)": 2.1},
      {"sequence": "AGTAAATCTCACATTCGTTAACATCAGCTG", "binding signal (log2 normalized intensity)": -1.1},
      {"sequence": "AGAAATCCACACAGCACTGACCTTTGAGAG", "binding signal (log2 normalized intensity)": 5.79},
      {"sequence": "ATATTGACTGCCCCAACGCCTCCTTTCATC", "binding signal (log2 normalized intensity)": 2.71},
      {"sequence": "AGTAAAGGTCGTTCTATCGGAGAACGTTCC", "binding signal (log2 normalized intensity)": 0.621},
      {"sequence": "TCATCAGTGCCATTCATTAGTCCTGGTTTT", "binding signal (log2 normalized intensity)": 0.795},
      {"sequence": "GGAAAGGGAACTCCCTGACCCCTAGCACTT", "binding signal (log2 normalized intensity)": 4.05},
      {"sequence": "TTAGAAGGCTCCCTGCTGCGGAGAGTTCCC", "binding signal (log2 normalized intensity)": -1.26},
      {"sequence": "AGAATTTAAACCAAACAGAACAAAGTCCAG", "binding signal (log2 normalized intensity)": 4.03},
      {"sequence": "CAGAGTAACCATGGGGGCTCAGGGCCTCTC", "binding signal (log2 normalized intensity)": -1.28},
      {"sequence": "ATTTCTGTGGACTGCTCCAGTGGACATTGG", "binding signal (log2 normalized intensity)": 3.51},
      {"sequence": "TGATAAGCAAGATGACTTTGGTCTAGACAC", "binding signal (log2 normalized intensity)": 1.28},
      {"sequence": "ACTGTCCCAGCTGAGATTCAGAATAGTTAA", "binding signal (log2 normalized intensity)": -1.5},
      {"sequence": "TTCAAAGGAGTGTCTTTCTCCTTGAACACA", "binding signal (log2 normalized intensity)": 1.22},
      {"sequence": "AATGCAGCAGCATTGGACCCTCCCAGCCAA", "binding signal (log2 normalized intensity)": 4.33},
      {"sequence": "GAAAAAGCTGACGCCCCACCCCCTCCACCC", "binding signal (log2 normalized intensity)": 6.5},
      {"sequence": "TGAAATCTACAGGACAGCCAGGCAGTCGGG", "binding signal (log2 normalized intensity)": -1.27},
      {"sequence": "GCCTGCGGGGTCAGGCCGTGGTGTATGATG", "binding signal (log2 normalized intensity)": 1.86},
      {"sequence": "CTGCCTTGGAGGCACTCCCAGGATAATGGA", "binding signal (log2 normalized intensity)": -1.41},
      {"sequence": "TTTGTTTTTACAGACAGGCATGACAGAGTG", "binding signal (log2 normalized intensity)": 1.13},
      {"sequence": "GCTGGACTTTCATCTGAGTCTCAGCAATTA", "binding signal (log2 normalized intensity)": 1.15},
      {"sequence": "TGAGCTGTGGTTAAGACTCAAAGTTCAGTC", "binding signal (log2 normalized intensity)": 3.85},
      {"sequence": "GGAGCTGAAACTATAAACTTGGTTACAGGA", "binding signal (log2 normalized intensity)": -1.37},
      {"sequence": "CTAATGGTACCATCTGCCACTCATAGAACT", "binding signal (log2 normalized intensity)": -1.3},
      {"sequence": "GTCTGCACTCCAGGAAAGACGAGTGCGCTT", "binding signal (log2 normalized intensity)": -1.3},
      {"sequence": "AAATTCCTAGCCCTCTTTCAAAGACAAATA", "binding signal (log2 normalized intensity)": -0.964},
      {"sequence": "CATTGCCCCCTATGTAAAGGCCTTTGAAGC", "binding signal (log2 normalized intensity)": 3.55},
      {"sequence": "AGTAATCAATGGTTGCACTCTGGTGCCCTC", "binding signal (log2 normalized intensity)": 2.89},
      {"sequence": "GCGTGGCCCAGCATGCCCCGCGCCGCGTCC", "binding signal (log2 normalized intensity)": 0.93},
      {"sequence": "AGAGAGTTCTATGGGATGACCTTTGAGCAA", "binding signal (log2 normalized intensity)": 7.89},
      {"sequence": "GGCAGATATGAAAGAGCCATGGACTGCTGA", "binding signal (log2 normalized intensity)": -0.289},
      {"sequence": "TGAGAAGGGCTAATATTTGCAAATGACTTT", "binding signal (log2 normalized intensity)": 0.24},
      {"sequence": "CCCACTAGGCCAGCCCGAGCGCGTCTGCCA", "binding signal (log2 normalized intensity)": -1.37},
      {"sequence": "TTTAATGTATAAACCCTGAGGGTCAACACA", "binding signal (log2 normalized intensity)": 2.27},
      {"sequence": "GGATGCCAAATTCCTCCCACTCTGACATCC", "binding signal (log2 normalized intensity)": -0.765},
      {"sequence": "GCCCTCCTAGCAAACAATGAGGACGTGTGT", "binding signal (log2 normalized intensity)": 0.528},
      {"sequence": "AGTGCTGTTTGCAAGGATTAAGTGAGATCA", "binding signal (log2 normalized intensity)": 1.27},
      {"sequence": "AAGAGCAAACAATCAGTGAAATGCCAGTGG", "binding signal (log2 normalized intensity)": -1.29},
      {"sequence": "AGAGTAGCTCCAAAAGGTGGACAAGACTGG", "binding signal (log2 normalized intensity)": -1.4},
      {"sequence": "CCCCATGATGATAGCAAACACGATTGGATG", "binding signal (log2 normalized intensity)": 0.195},
      {"sequence": "GGCAGGACAGCAGGAGTGGGAGAAAGCTTT", "binding signal (log2 normalized intensity)": -1.37},
      {"sequence": "AACAAACGACGCTCCTATCATCCCTATCAC", "binding signal (log2 normalized intensity)": -1.29},
      {"sequence": "TTCCAGAAATCTGACCTCTGCCTCGGCCAC", "binding signal (log2 normalized intensity)": 3.19},
      {"sequence": "TCTTAGGACCACATGAGTAAACAAGCTCTT", "binding signal (log2 normalized intensity)": -1.3},
      {"sequence": "CAGCAACACTCTACTACTTGACCTTTGAAA", "binding signal (log2 normalized intensity)": 6.62},
      {"sequence": "GCTTTTCCATTGACAGTCCAAGGACTCAAT", "binding signal (log2 normalized intensity)": -0.931},
      {"sequence": "AAGAGATAGCGAGAAGGCAGGTAGAAGAAG", "binding signal (log2 normalized intensity)": -1.27},
      {"sequence": "GCTAAGATTGGACTCTGCACTCCAGCCTGG", "binding signal (log2 normalized intensity)": 5.62},
      {"sequence": "TCAGACCACCAGCTGCTTCGGCCAGCACAG", "binding signal (log2 normalized intensity)": -1.38},
      {"sequence": "AGAGATCAAAGGTGAGTGGGGAAAGAGCCC", "binding signal (log2 normalized intensity)": 2.45},
      {"sequence": "CAGGGGTAAGTTTCTAACTACCATGAATTC", "binding signal (log2 normalized intensity)": 0.259}
    ]}
  ]
}
